Source: the RNAGym collection of RNA variant scans (doi:10.7554/elife.90254)
The source gives no read counts; variants with many changes may rest on few reads.

B1: OR4K15 (parent)
chain: GUUAACGGUCAUAGGCCAUGGAAACUAGGAGCACCAUUUCGCUGCCAGUGAAGAAAUGAACAAAGAAAAUCUGGGCCAGGCAGGCAUCAAAAGAAAUAGUCUUGCGCUCAACCAGAAAGUCUGUAAUCAUUUUAAGGGUA

Variants of: B1
Experiment: self-cleavage, relative activity (ratio to wild type); higher = more cleavage; in vitro, sequencing; the parent is a self-cleaving ribozyme

Variant | self-cleavage
A68U A96G A118G U122G | 1.75
A69G U100G A118G | 1.21
A68G U108C G115A | 0.02
C76A A78G A90C | 0.07
U72C A95G A126G | 0.25
A67U A89G U102A | 0.88
A82C U103C U122A | 0.04
U72A A94U U130C | 0.06
C76G U100C A111U A126U | 0.02
C85U A96G U108C | 0.04
A69U A82G A94U U127C | 0.89
U70C A82G U108C A117C U127A U130G | 0.01
A82G A86U A91G | 0.43
A78G A111G U132C | 0.02
G73A C85U A92G | 0.28
U70C A92G A118G A134U | 0.18
U70C A78G U127C A140G | 0.11
G74A A94G U103C U130C U132C U139C | 0.04
A78G A82G U100A | 0.05
A82U U100A A116G | 0.01
U72C A89U U127C | 0.02

Variant | self-cleavage
A78U A91G A110G | 0.02
A82G U87C A91G A96G U139A | 0.14
A67G A129C U132C | 1.46
A82G A92C A126G | 0.53
A69G G75C U87C A96C A111G U130C | 0
A69U A94G U108C | 0.02
A86G A90U A114G | 0.4
A78U U100C U130C | 0.77
A68G A78G A126U | 0.13
A68G A125G U139C | 0.72
A68U A86U A116U A126G | 0.32
U70C A78U A116U | 0.08
A69G A82G U122C | 0.18
A82G A90G A118G | 0.12
U72C U103C A111G A140G | 0.01
U70C A90U U120C | 0.13
A69U A82C A94G A111G | 0.02
A69G A94U U127C | 1.61
A82U U97A U102C | 0.37
A78G A90G U103C U132C | 0.05
A82U U100A A110G U127C | 0.16

Variant | self-cleavage
A82G U124A U132C | 0.13
A68G A89C A95G A126C | 0.94
U72A U103C U120A | 0.06
A67U A68G A134G | 2.2
A69C A110G A118G | 0.1
A68G A91G A94G U131C G137U | 0.75
A67G A96U A116G | 0.49
U72C C128G U133C | 0.14
U72C A96G A118U | 0.05
A69G A86G A117G U122C U132C | 0.42
C76G A90G G106U U139A | 0.01
A68G C81A A82G A86G A94G A118G U139A | 0.09
U70A U100C U120C | 2.1
A82U A90G C105U | 0.01
A82C A86G U100C U122A | 0.35
A68G A94G U100C | 1.77
U72C U100C A111G | 0.02
U70C A111G U139A | 0.03
A69G U87C A94G | 1.3
U72C A110C A114U | 0
A68G A69G U130C | 0.19

Variant | self-cleavage
A69G A111G U127C | 0.02
A69G A98G U108G | 0.02
A69U U97A U133C | 2.28
A67G A114C U133C | 0.05
G80U A82G G99U G106C U122C | 0
A78G A110G A116G U132C | 0.02
C71A U103A U130C | 0.08
U70C A78G C105U | 0.04
A86G A90G U108C A129G | 0.02
A67G A98G U100C A114U A118G U122A G137A | 0.02
U70C A82G A96G | 0.36
A69G C105U A110U A114C | 0.01
A67G A114G A126G | 0.3
A69G A117G A135U U139C | 0.55
A82C U120A A129G | 0.07
G75A A91G A111G A117G A118G | 0.01
A67G A96U U122C | 2.02
A69G A89C U124C | 0.65
A68G C105U U127C | 0.03
G80U U87C U139A | 0.16
